# Reference: the supplement of paper PMC4604168 (melanoma cell lines)
# Some of the results follow. Most values come without repeats; read them as rough.
# How the values were obtained:
# Test in all cases: cell count relative to DMSO control; melanoma cells; higher = more viable cells
# Details in all cases: library dose: standard library concentration; 72 h
# [1] = system: G361
# [2] = system: IPC-298
# [3] = system: IST-MEL1
# [4] = system: LB2518-MEL
# [5] = system: LOXIMVI
# [6] = system: MEL-HO
# [7] = system: MZ2-MEL
# [8] = system: MeWo
# [9] = system: RPMI7951
# [10] = system: RVH-421
# [11] = system: SkMel28
# [12] = system: SkMel2
# [13] = system: SkMel30
# [14] = system: SkMel5
# [15] = system: UACC257
# [16] = system: UACC62
# [17] = system: WM115
# [18] = system: WM1716
# [19] = system: WM1745
# [20] = system: WM3526
# 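Further: cells treated in 1,536-well plates, then fixed and DAPI-stained, with nuclei counted from automated high-throughput microscope images.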
Structure (SMILES),cell count [1],cell count [2],cell count [3],cell count [4],cell count [5],cell count [6],cell count [7],cell count [8],cell count [9],cell count [10],cell count [11],cell count [12],cell count [13],cell count [14],cell count [15],cell count [16],cell count [17],cell count [18],cell count [19],cell count [20]
"COc1ccc2c(c1)CCC1C2CCC2(C)C(NCCCCCCN3C(=O)C=CC3=O)CCC12 (stereo not given) + O=C(Oc1ccc([N+](=O)[O-])cc1)N1CCC(C(O)(c2ccc3c(c2)OCO3)c2ccc3c(c2)OCO3)CC1 [JZL184] (first compound 2 µM, partner dose 5 µM)",89.2%,101%,95.5%,91.2%,91.1%,89.8%,103%,65.4%,44.5%,107%,132%,97.2%,109%,77.3%,88.2%,80%,96.2%,71.5%,71.4%,79.7%
"CCCCCCCCCCCCCCCCCCOP(=O)([O-])OC1CC[N+](C)(C)CC1 [Perifosine] + Cn1cc(C2=C(c3cn(C4CCN(Cc5ccccn5)CC4)c4ccccc34)C(=O)NC2=O)c2ccccc21 [Enzastaurin] (first compound 2 µM, partner dose 4 µM)",96.8%,99%,100%,89.3%,138%,103%,103%,75.4%,26.7%,47.5%,88.5%,95.2%,105%,98.4%,107%,84.6%,99.2%,92.2%,70.7%,83.2%
"CC[C@]1(O)C[C@H]2CN(CCc3c([nH]c4ccccc34)[C@@](C(=O)OC)(c3cc4c(cc3OC)N(C=O)[C@H]3[C@@](O)(C(=O)OC)[C@H](OC(C)=O)[C@]5(CC)C=CCN6CC[C@]43[C@@H]65)C2)C1 [vincristine] + Cn1cc(C2=C(c3cn(C4CCN(Cc5ccccn5)CC4)c4ccccc34)C(=O)NC2=O)c2ccccc21 [Enzastaurin] (first compound 0.0005 µM, partner dose 4 µM)",71.2%,87.7%,45.4%,44.5%,67.7%,75.8%,62.3%,69.1%,16.6%,40.8%,34.4%,47.4%,41.9%,47.8%,70%,42.9%,46.3%,36.8%,45.6%,51.2%
"OCCn1cc(-c2cnc3nnn(Cc4ccc5ncccc5c4)c3n2)cn1 + Cc1cc(SCc2sc(-c3ccc(C(F)(F)F)c(F)c3)nc2C)ccc1OCC(=O)O [GW0742] (first compound 5 µM, partner dose 10 µM)",88%,92.2%,92.9%,104%,113%,87.6%,86.8%,86.8%,92%,117%,85.4%,93.2%,106%,101%,92.2%,74.5%,86.1%,93.9%,78.9%,80.1%
"CS(=O)(=O)CCNCc1ccc(-c2ccc3ncnc(Nc4ccc(OCc5cccc(F)c5)c(Cl)c4)c3c2)o1 [lapatinib] + C[As](C)SC[C@H](NC(=O)CC[C@H](N)C(=O)O)C(=O)NCC(=O)O [Darinaparsin] (first compound 4 µM, partner dose 2 µM)",56.6%,95.8%,97.1%,87.9%,83.4%,74.3%,49.4%,57%,42.7%,75.3%,55.7%,80.5%,76.3%,43.7%,75.4%,41.7%,71.5%,53.1%,82.6%,57.3%
"CS(=O)(=O)c1ccc(C(=O)Nc2ccc(Cl)c(-c3ccccn3)c2)c(Cl)c1 [vismodegib] + C[As](C)SC[C@H](NC(=O)CC[C@H](N)C(=O)O)C(=O)NCC(=O)O [Darinaparsin] (first compound 5 µM, partner dose 2 µM)",81.3%,86.4%,87%,99.7%,117%,103%,102%,89.3%,107%,166%,83.5%,90.2%,108%,82.3%,95.3%,76.7%,90.8%,88.8%,124%,79.7%
"Cc1cc(SCc2sc(-c3ccc(C(F)(F)F)c(F)c3)nc2C)ccc1OCC(=O)O + O=C(O)C(=O)Nc1sc2c(c1C(=O)O)CCNC2 [TCS401] (first compound 10 µM, partner dose 8.33333 µM)",87.9%,113%,100%,94.1%,113%,91.3%,110%,103%,83.6%,90.7%,75.8%,101%,118%,100%,89.7%,113%,104%,102%,78.7%,89.2%
"Cc1ccc(Nc2nccc(N(C)c3ccc4c(C)n(C)nc4c3)n2)cc1S(N)(=O)=O [Pazopanib] + C[C@]12O[C@H](C[C@]1(O)CO)n1c3ccccc3c3c4c(c5c6ccccc6n2c5c31)CNC4=O [Lestaurtinib] (first compound 2 µM, partner dose 0.02 µM)",71.3%,62.1%,101%,56.5%,106%,85.1%,92.7%,63.5%,66.7%,81.5%,52.2%,90.9%,80.1%,65.1%,88.6%,56.1%,82.4%,83.4%,72.8%,76.4%
